# From paper PMC4336329 (PLoS ONE, 2015)
# The campaign covered roughly 310,000 compounds. About 2,200 (0.71%) showed an effect of 50% or more. Effects have a minus sign here. The list shows a part of the results.
# Target: human ether-à-go-go-related gene (hERG) potassium channel (human, UniProt Q12809)
# Test: primary screen, population patch clamp on CHO cells stably expressing hERG
# human ether-à-go-go-related gene (hERG) potassium channel, sequence (Q12809 whole entry, looked up): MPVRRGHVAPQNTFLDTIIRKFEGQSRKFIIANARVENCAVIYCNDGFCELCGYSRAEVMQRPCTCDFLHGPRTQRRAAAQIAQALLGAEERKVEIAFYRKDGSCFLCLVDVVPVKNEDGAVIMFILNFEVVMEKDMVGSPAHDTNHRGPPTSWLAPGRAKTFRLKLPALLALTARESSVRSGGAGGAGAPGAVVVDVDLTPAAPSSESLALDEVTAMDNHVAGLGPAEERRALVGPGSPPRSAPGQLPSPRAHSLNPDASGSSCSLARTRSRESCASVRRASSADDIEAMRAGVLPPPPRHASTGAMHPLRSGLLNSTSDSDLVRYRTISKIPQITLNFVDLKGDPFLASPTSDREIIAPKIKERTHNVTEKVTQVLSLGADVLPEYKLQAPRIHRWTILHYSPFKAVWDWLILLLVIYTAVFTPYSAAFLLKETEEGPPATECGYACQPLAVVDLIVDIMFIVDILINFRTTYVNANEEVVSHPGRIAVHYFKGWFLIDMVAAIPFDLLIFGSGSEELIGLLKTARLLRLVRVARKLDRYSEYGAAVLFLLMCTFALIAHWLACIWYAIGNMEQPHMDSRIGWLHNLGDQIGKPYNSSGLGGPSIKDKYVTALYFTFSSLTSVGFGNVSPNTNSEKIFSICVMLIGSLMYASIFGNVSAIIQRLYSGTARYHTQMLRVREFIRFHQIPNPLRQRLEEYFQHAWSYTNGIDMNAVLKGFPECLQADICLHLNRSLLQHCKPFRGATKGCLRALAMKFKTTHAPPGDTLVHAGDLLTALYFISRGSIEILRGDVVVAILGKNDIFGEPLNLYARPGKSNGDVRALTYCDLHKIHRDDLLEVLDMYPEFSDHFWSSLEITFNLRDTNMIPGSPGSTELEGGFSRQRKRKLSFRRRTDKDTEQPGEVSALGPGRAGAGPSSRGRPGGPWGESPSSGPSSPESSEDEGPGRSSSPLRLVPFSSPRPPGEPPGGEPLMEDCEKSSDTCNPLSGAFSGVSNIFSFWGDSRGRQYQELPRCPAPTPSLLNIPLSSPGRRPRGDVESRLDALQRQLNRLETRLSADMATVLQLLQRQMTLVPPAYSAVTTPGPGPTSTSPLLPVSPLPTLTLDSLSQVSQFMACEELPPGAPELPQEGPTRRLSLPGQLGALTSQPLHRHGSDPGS
row,SMILES,"hERG current change (%, negative = inhibition) at 1uM [%]"
1,CCC(CC)C(=O)N1CCN(Cc2nc3ccccc3c(=O)[nH]2)CC1,6.77
2,CC(CCc1ccccc1)NC(=O)c1ccc(NC(=O)c2ccccc2)cc1 (centres unmarked),11.5
3,CCC(C)[C@H](NC(=O)N1c2ccccc2NC(=O)[C@@H]1C(C)C)C(=O)N[C@@H](Cc1ccccc1)C(=O)O (some centres unmarked),12.4
4,Cc1cc(NN)nc(NS(=O)(=O)c2ccccc2)n1,21.1
5,O=S(=O)(c1ccccc1)c1nnn2c1nc(NC1CCN(Cc3ccccc3)CC1)c1cc(Cl)ccc12,9.66
6,O=C(CCC(=O)N1C[C@H]2C[C@@H](C1)c1cccc(=O)n1C2)NCc1ccccc1C(F)(F)F,-3.34
7,CCn1cnc2scc(-c3ccccc3)c2c1=O,8.79
8,CC(=O)N1N=C(c2ccc(Br)cc2)OC12CCCC2,14.7
9,Cc1cccc(C)c1NC(=S)/N=C/N(C)C,12.9
10,Cc1cc(C(=O)CN2CCN(CC(=O)Nc3cccc(F)c3)CC2)c(C)n1C1CC1,-7.82
11,CCN(CC)C(=O)C1CCCN(Cc2ccc(OC)c(C)c2)C1 (centres unmarked),6.74
12,COc1ccc(CCNC(=O)c2cc(-c3cc(C)ccc3O)n[nH]2)cc1OC,5.23
13,Cc1onc(-c2c(Cl)cccc2Cl)c1NC(=O)NN(C)c1ccc([N+](=O)[O-])cn1,6.64
14,O=C(Nc1ccc(-c2nc3ccccc3o2)c(O)c1)c1cc(-n2cnnc2)ccc1Cl,7.67
15,COc1ccc(NC(=O)c2cc(-c3ccco3)on2)cc1OC,14.2
16,O=C(C1CCC1)N1CCN(S(=O)(=O)c2ccc(F)cc2)CC1,12.3
17,CCCCCC1CCC(C(=O)O)CC1 (centres unmarked),12.9
18,Cc1cccc2cc(CN(CC3CCCO3)C(=S)NCc3ccco3)c(=O)[nH]c12 (centres unmarked),15.4
19,Cc1ccc(CSCC(=O)N(C)CC(=O)Nc2ccccc2Cl)cc1,15.1
20,Cc1cc(Cl)nc2ccc(Cc3ccc4nc(Cl)cc(C)c4c3)cc12,3
21,Cc1cc(C)n(Cc2ccccc2Cl)n1,5.89
22,O=C(CNC(=O)c1ccccc1F)OCCCOC(=O)CNC(=O)c1ccccc1F,10.5

row,SMILES,"hERG current change (%, negative = inhibition) at 1uM [%]"
1,O=C1Cc2cc(NS(=O)(=O)c3ccc(Cl)cc3)cc3c2N1CCC3,1.28
2,CCC(=O)Nc1nc2ccccc2n1Cc1ccccc1,2.8
3,COc1ccc(OC)c(NC(=O)c2ccc(-n3cccn3)nc2)c1,-16.2
4,CNC(=O)N(O)C1N(NC(=O)Nc2cccc3ccccc23)C(=S)SC1(C)C (centres unmarked),1.3
5,COc1ccc(N=Cc2sc(O)c3ccccc23)cc1,14.7
6,Cc1ccc(S(=O)(=O)Nc2cccc(Cl)c2)cc1NC(=O)c1cccnc1,5.21
7,C1COCCNCCOCCOCCOCCN1,6.07
8,COc1ccc(C(CNC(=O)c2cc(S(=O)(=O)N3CCCC3)ccc2Cl)N2CCCC2)cc1 (centres unmarked),-7.15
9,Cc1cccc(N2C(=O)NC(=O)/C(=C/c3ccc(N4CCOCC4)cc3)C2=O)c1,13.6
10,CC(C)Cn1cnc2c1c(=O)n(CC(O)c1ccccc1)c(=O)n2CC(C)C (centres unmarked),-0.774
11,Cc1cccc(C(=O)N(CCc2ccccc2)Cc2ccccc2)c1[N+](=O)[O-],6.71
12,S=C1NCCOCCOCCOCCNC(=S)NCCOCCOCCOCCN1,15.5
13,COc1ccccc1C(=O)NCCC(=O)N1CCN(C(C)=O)CC1,15.9
14,O=C(C(Cc1ccccc1)n1cccc1)N1CCN(C2CCCCC2)CC1 (centres unmarked),-24.8
15,O=C(Nc1ccc(Cl)c(C(F)(F)F)c1)c1ccco1,1.42
16,CNC1=C(N(C(C)=O)c2ccc(Br)cc2)C(=O)c2ccccc2C1=O,4.67
17,COc1ccc(OC)c(NC(=O)C2CC(=O)N(c3ccc(Br)cc3)C2)c1 (centres unmarked),-1.11
18,O=C(O)CSCC(=O)NCc1csc2ccc(Cl)cc12,6.72
19,COc1ccccc1C(=O)NCCC(=O)N(C)Cc1cccnc1,6.2
20,C=CCc1cccc(CNc2c(C)cc(C)cc2C)c1O,12.3
21,CCCCC(=O)Nc1ccc2c(c1)nc(CN1CCN(C(=O)OCC)CC1)n2C,13.1
22,COc1ccccc1N1CCN(C(=O)c2ccccc2NC(=O)C2CCCCC2C(=O)O)CC1 (centres unmarked),1.57
